Assay results taken from publication PMC7139218, “Structural Basis for Rab8a Recruitment of RILPL2 via LRRK2 Phosphorylation of Switch 2” (Structure(London, England:1993), 2020).
Residue numbers refer to the chain shown, from its start. Results are given in words; binding and its absence hold for the method and conditions named. Binding seen in cells or lysates may run through a third protein. Some binding calls cover weakened binding; strength is not graded here. Where a sequence is shown, tags or fusion partners need not be part of it.

Protein sequences, listed by entry. Tags and fused reporters are not part of them.
UniProt P61006: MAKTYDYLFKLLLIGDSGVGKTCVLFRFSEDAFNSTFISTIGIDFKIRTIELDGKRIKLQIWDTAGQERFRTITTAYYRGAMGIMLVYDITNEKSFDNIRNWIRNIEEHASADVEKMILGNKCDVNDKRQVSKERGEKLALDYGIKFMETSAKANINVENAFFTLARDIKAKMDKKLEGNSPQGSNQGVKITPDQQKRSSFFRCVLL

Tests used:
Experiment in all cases: co-IP; HEK293 cells co-expressing Flag-LRRK2 (R1441G or Y1699C), HA-Rab and GFP-tagged effector, no MLi-2; GFP fusion precipitated with GFP binder Sepharose, 1 h, washed in 50 mM Tris-HCl pH 7.5, 150 mM NaCl; immunoblot
JIP4-GFP (full length) = biological target: T1, JIP4-GFP (full length) (UniProt O60271)
T1 sequence: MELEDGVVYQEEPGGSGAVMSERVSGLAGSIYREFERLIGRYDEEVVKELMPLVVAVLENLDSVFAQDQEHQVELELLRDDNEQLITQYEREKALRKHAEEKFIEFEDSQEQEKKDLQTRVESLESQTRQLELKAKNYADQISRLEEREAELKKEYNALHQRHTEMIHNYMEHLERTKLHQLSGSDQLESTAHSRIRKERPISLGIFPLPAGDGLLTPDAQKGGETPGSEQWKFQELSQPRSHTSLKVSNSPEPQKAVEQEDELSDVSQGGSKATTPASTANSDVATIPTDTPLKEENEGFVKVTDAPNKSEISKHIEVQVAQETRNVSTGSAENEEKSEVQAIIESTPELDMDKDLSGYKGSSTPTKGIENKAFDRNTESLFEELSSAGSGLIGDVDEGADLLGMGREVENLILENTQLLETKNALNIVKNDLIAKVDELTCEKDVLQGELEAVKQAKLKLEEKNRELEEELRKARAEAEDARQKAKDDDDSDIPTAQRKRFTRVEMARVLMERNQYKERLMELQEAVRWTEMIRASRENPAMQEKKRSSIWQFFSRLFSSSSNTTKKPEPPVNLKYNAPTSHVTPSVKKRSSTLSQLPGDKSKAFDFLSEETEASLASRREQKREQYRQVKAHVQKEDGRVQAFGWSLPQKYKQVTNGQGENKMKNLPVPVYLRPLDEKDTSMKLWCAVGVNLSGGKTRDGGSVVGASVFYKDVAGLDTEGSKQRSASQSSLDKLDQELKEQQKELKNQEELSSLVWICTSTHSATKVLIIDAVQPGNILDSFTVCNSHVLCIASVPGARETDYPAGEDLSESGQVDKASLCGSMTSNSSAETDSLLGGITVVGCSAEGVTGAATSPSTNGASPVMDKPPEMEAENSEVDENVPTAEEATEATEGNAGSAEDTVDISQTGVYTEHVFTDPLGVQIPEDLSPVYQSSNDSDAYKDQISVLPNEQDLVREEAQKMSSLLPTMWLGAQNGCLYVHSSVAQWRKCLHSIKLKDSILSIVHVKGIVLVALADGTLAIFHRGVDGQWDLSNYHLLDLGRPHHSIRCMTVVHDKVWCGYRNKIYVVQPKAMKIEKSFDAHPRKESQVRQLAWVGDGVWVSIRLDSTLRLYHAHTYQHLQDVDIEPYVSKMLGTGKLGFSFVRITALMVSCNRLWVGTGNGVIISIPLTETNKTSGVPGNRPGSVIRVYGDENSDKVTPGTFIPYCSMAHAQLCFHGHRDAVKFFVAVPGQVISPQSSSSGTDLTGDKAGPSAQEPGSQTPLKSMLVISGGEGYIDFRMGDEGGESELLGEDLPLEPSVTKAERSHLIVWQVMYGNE

RILPL2-GFP L135A (human) = biological target: T2, RILPL2-GFP L135A (human) (UniProt Q969X0)
T2 sequence: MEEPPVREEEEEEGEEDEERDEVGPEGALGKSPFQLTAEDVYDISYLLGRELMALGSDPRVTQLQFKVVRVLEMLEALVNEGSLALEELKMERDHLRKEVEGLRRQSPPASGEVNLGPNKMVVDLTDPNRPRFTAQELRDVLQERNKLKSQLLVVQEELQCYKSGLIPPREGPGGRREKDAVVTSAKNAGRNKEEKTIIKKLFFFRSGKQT

RILPL2-GFP R132K (human) = biological target: T3, RILPL2-GFP R132K (human) (UniProt Q969X0)
T3 sequence: T2 sequence with R132K, A135L

RILPL2-GFP R139A (human) = biological target: T4, RILPL2-GFP R139A (human) (UniProt Q969X0)
T4 sequence: T2 sequence with A135L, R139A

RILPL2-GFP R139E (human) = biological target: T5, RILPL2-GFP R139E (human) (UniProt Q969X0)
T5 sequence: T2 sequence with A135L, R139E

binding (JIP4-GFP (full length)): binds weakly
binding (RILPL2-GFP L135A (human)): binds
binding (RILPL2-GFP R132K (human)): no binding
binding (RILPL2-GFP R139A (human)): binds
binding (RILPL2-GFP R139E (human)): binds
Substance: HA-Rab8a WT, LRRK2-phosphorylated (pT72) (from UniProt P61006 1-207)
